# Assay results from the supplement of paper PMC8728848.
# The list shows a part of the results.
# B1: FimA-N3 (Actinomyces oris) (protein)
# chain: MHHHHHHSSGVDLGTENLYFQSNAGLQGAQFQLYKAKNAYANTCSNEKEGAPIAINGQTTLTTDAQGAIDIKGLFISDSIDGADRDNQVNAMERCYVLVETKAPAGYVLPAGNGAATPVKVKAGEETTDN
# Legend:
# Assay in all cases: glycan array binding signal (z-score within array); higher = stronger binding
# Conditions in all cases: glycan notation: IUPAC condensed, linker removed
# GlcNAc(b1-3)Man = target: GlcNAc(b1-3)Man
# How it was run: (§1)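 From the Consortium for Functional Glycomics database, 3228 arrays were curated, keeping only those whose protein sequence was available. Binding is given as a within-array Z-score averaged across arrays sharing a protein sequence and across linkers. Negative Z-scores can be read as non-binding.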
# [1] = target: GlcNAc(b1-3)[GlcNAc(b1-4)][GlcNAc(b1-6)]GlcNAc
# How it was run: as §1
# [2] = target: GlcNAc(b1-3)[GlcNAc(b1-6)]Gal(b1-4)GlcNAc
# How it was run: as §1
# [3] = target: GlcNAc(b1-3)[GlcNAc(b1-6)]GalNAc
# How it was run: as §1
# [4] = target: GlcNAc(b1-4)Gal(b1-4)GlcNAc
# How it was run: as §1
# GlcNAc(b1-4)GlcNAc = target: GlcNAc(b1-4)GlcNAc
# How it was run: as §1
# [5] = target: GlcNAc(b1-4)GlcNAc(b1-4)GlcNAc
# How it was run: as §1
# [6] = target: GlcNAc(b1-4)GlcNAc(b1-4)GlcNAc(b1-4)GlcNAc(b1-4)GlcNAc
# How it was run: as §1
# [7] = target: GlcNAc(b1-4)GlcNAc(b1-4)GlcNAc(b1-4)GlcNAc(b1-4)GlcNAc(b1-4)GlcNAc
# How it was run: as §1
# [8] = target: GlcNAc(b1-4)[GlcNAc(b1-6)]GalNAc
# How it was run: as §1
# [9] = target: GlcNAc(b1-6)Gal(b1-4)GlcNAc
# How it was run: as §1
# GlcNAc(b1-6)GalNAc = target: GlcNAc(b1-6)GalNAc
# How it was run: as §1
# [10] = target: GlcNAc6S(b1-3)Gal(b1-4)GlcNAc
# How it was run: as §1
# Kdn(a2-3)Gal(b1-3)GalNAc = target: Kdn(a2-3)Gal(b1-3)GalNAc
# How it was run: as §1
# Kdn(a2-3)Gal(b1-3)GlcNAc = target: Kdn(a2-3)Gal(b1-3)GlcNAc
# How it was run: as §1
# Kdn(a2-3)Gal(b1-4)Glc = target: Kdn(a2-3)Gal(b1-4)Glc
# How it was run: as §1
# Kdn(a2-3)Gal(b1-4)GlcNAc = target: Kdn(a2-3)Gal(b1-4)GlcNAc
# How it was run: as §1
# [11] = target: Kdn(a2-3)Gal(b1-4)[Fuc(a1-3)]GlcNAc
# How it was run: as §1
# Kdn(a2-6)Gal(b1-4)GlcNAc = target: Kdn(a2-6)Gal(b1-4)GlcNAc
# How it was run: as §1
# [12] = target: Man(a1-2)Man(a1-2)Man(a1-3)Man
# How it was run: as §1
# [13] = target: Man(a1-2)Man(a1-2)Man(a1-6)[Man(a1-3)]Man
# How it was run: as §1
# Man(a1-2)Man(a1-3)Man = target: Man(a1-2)Man(a1-3)Man
# How it was run: as §1
# [14] = target: Man(a1-2)Man(a1-3)[Man(a1-2)Man(a1-6)]Man
# How it was run: as §1
binder,measurement,setting,value
B1,glycan array binding signal (z-score),GlcNAc(b1-3)Man,-0.375
same,glycan array binding signal (z-score),[1],0.112
same,glycan array binding signal (z-score),[2],-0.08
same,glycan array binding signal (z-score),[3],0.396
same,glycan array binding signal (z-score),[4],-0.488
same,glycan array binding signal (z-score),GlcNAc(b1-4)GlcNAc,-0.048
same,glycan array binding signal (z-score),[5],-0.549
same,glycan array binding signal (z-score),[6],0.098
same,glycan array binding signal (z-score),[7],0.029
same,glycan array binding signal (z-score),[8],0.481
same,glycan array binding signal (z-score),[9],-0.136
same,glycan array binding signal (z-score),GlcNAc(b1-6)GalNAc,1.02
same,glycan array binding signal (z-score),[10],-0.481
same,glycan array binding signal (z-score),Kdn(a2-3)Gal(b1-3)GalNAc,-0.514
same,glycan array binding signal (z-score),Kdn(a2-3)Gal(b1-3)GlcNAc,-0.302
same,glycan array binding signal (z-score),Kdn(a2-3)Gal(b1-4)Glc,-0.291
same,glycan array binding signal (z-score),Kdn(a2-3)Gal(b1-4)GlcNAc,-0.14
same,glycan array binding signal (z-score),[11],-0.499
same,glycan array binding signal (z-score),Kdn(a2-6)Gal(b1-4)GlcNAc,-0.558
same,glycan array binding signal (z-score),[12],-0.398
same,glycan array binding signal (z-score),[13],-0.489
same,glycan array binding signal (z-score),Man(a1-2)Man(a1-3)Man,-0.379
same,glycan array binding signal (z-score),[14],-0.586
